Among all 230,000 compounds or so, about 1,500 (0.65%) were called active. Inconclusive results, whose numbers are uncertain, are shown with a selection of clear calls. Calls come from the whole dose curve; as a rule, active = well fitted inhibition curve with a large enough effect; inconclusive = small, poorly fitted or top-dose-only effect; inactive = no such curve, though single readings can be large or run the other way. Potencies beside an inconclusive call are fits to weak or partial responses and may not hold up.
What follows are molecules tested against Lethal(3)malignant brain tumor-like protein 1 (Homo sapiens) (UniProt Q9Y468) (assay: qHTS Assay for the Inhibitors of L3MBTL1). Conditions: AlphaScreen L3MBTL1–H3K9me1 peptide binding; activity, negative = inhibition: at 57.1 µM (top of the series).
How it was run: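 Displacement of a biotinylated histone H3(1-15) peptide monomethylated at Lys9 (75 nM) from L3MBTL1 (50 nM) was measured by AlphaScreen after a 30 min room-temperature compound incubation; cefsulodin titration served as intraplate control.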
% is set by controls: 0 for no effect and ±100 for the full control effect; potency is the fitted concentration of half-maximal effect; tags give direction and shape of the fitted curve.
Note: nearly all actives have a fitted effect of over 60% in size.

UniProt Q9Y468, sequence (Q9Y468 whole entry, looked up): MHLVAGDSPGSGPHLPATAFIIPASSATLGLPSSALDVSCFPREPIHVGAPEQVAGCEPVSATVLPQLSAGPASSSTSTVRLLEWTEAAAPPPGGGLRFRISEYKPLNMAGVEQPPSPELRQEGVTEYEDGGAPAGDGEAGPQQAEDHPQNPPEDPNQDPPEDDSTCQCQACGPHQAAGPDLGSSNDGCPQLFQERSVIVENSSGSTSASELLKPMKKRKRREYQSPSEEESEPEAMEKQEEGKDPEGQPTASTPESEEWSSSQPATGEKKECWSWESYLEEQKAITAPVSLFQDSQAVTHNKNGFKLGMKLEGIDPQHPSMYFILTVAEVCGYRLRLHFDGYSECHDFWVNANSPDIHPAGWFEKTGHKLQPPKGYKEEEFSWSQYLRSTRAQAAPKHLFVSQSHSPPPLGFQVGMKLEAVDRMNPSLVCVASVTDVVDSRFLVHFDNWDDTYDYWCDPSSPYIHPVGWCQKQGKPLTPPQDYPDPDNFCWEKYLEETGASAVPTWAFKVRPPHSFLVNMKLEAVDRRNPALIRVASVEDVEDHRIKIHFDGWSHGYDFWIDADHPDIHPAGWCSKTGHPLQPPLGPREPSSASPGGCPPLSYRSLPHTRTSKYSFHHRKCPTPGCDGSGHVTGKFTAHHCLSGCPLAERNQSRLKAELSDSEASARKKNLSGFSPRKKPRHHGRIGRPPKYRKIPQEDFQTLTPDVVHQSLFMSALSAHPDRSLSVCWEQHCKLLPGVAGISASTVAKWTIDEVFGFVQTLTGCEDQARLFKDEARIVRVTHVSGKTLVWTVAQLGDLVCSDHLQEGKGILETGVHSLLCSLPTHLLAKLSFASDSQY

For CCOC(=O)C(=CNc1ccc2c(c1)nnn2-c1ccc(Cl)cc1)C(=O)OCC, which Potency is on record?
Its Potency is inconclusive: 0.708 µM [inhibitor, single point].

Which Potency does the source give for Cc1ccc(-c2csc(NC(=O)C[n+]3cc(-c4ccc(C)cc4)n4c3CCC4)n2)cc1 here?
Its Potency is inconclusive: 28.2 µM [inhibitor, partial curve].

With NC(=O)c1nsc(C(=O)N(c2ccccc2)C(C(=O)NCC2CCCO2)c2cccs2)c1N (stereo unspecified) as the molecule, how does the Potency read?
Its Potency is “inactive”.

How did the Potency turn out when CC(=O)Nc1ccc(S(=O)(=O)Nc2cc([N+](=O)[O-])ccc2C)cc1 was run?
The Potency was “inactive”.

With O=C1C=C(O)CC(c2ccco2)C1 (stereo unspecified) as the molecule, how does the Potency read?
Its Potency is active: 14.1 µM.

How did the Potency turn out when Cc1noc(C)c1COc1ccc(C(=O)OCC(=O)OC(C)(C)C)cc1 was run?
The Potency was inconclusive: 0.891 µM [inhibitor, full curve, poor fit].

For CCc1cc(C(=O)N2CCN(C(=O)c3ccccc3)CC2)sc1C, which Potency is on record?
Its Potency is “inactive”.

With O=C(NC(Cc1ccccc1)C(=O)O)/C(=C\c1ccco1)NC(=O)c1ccccc1Br (stereo unspecified) as the molecule, how does the Potency read?
The Potency was inconclusive: 39.8 µM [inhibitor, single point].

For CCCCN(CC)CCNC(=O)C1c2cc(OC)c(OC)cc2C(=O)N2CCc3ccccc3C12 (stereo unspecified), which Potency is on record?
The Potency was inconclusive: 6.31 µM [inhibitor, single point].

For S=c1[nH]nc(-c2ccncc2)n1/N=C/C=C/c1ccco1, which Potency is on record?
Its Potency is active: 17.8 µM.

How did the activity, negative = inhibition turn out when c1coc(CNc2ncnc3[nH]ncc23)c1 was run?
The activity, negative = inhibition was inconclusive: -69.5% [inhibitor].

CCCCCOC(=O)c1[nH]c2c(c1C)C(=O)CC(c1ccco1)C2 (stereo unspecified) was tested. Which Potency did it give?
The Potency was inconclusive: 35.5 µM [inhibitor, partial curve].

Which Potency does the source give for COc1cccc(CNc2ccc(N3CCC(C)CC3)cc2)c1OC here?
The Potency was inconclusive: 22.4 µM [inhibitor, partial curve].

For CCOC(=O)Cn1c(CN2CCOCC2)nc2c1c(=O)[nH]c(=O)n2C, which Potency is on record?
The Potency was inconclusive: 3.98 µM [inhibitor, full curve].

For Cc1ccc(-c2nc3ncccn3c2Nc2ccc3c(c2)OCO3)o1, which Potency is on record?
The Potency was inconclusive: 8.91 µM [inhibitor, full curve, poor fit].

Which Potency does the source give for O=C(COC(=O)c1ccc(F)c([N+](=O)[O-])c1)NC(=O)NCc1ccccc1 here?
Its Potency is “inactive”.

COc1ccc(CCn2c(N)c(C(=O)NCc3ccco3)c3nc4ccccc4nc32)cc1OC was tested. Which Potency did it give?
The Potency was “inactive”.

For COc1cc(C)ccc1OCCOc1c(C)cc(Cl)cc1Cl, which Potency is on record?
The Potency was “inactive”.

How did the Potency turn out when O=C(/C=C/c1ccccc1)Oc1ccccc1C(=S)N1CCOCC1 was run?
The Potency was “inactive”.

For CC(=O)N1CCc2cc(S(=O)(=O)NC3CCCc4ccccc43)ccc21 (stereo unspecified), which Potency is on record?
Its Potency is inconclusive: 4.47 µM [inhibitor, single point].

Which Potency does the source give for Cc1cc(C(=O)COC(=O)C2=COCCO2)c(C)n1-c1ccccc1 here?
Its Potency is inconclusive: 35.5 µM [inhibitor, partial curve, poor fit].

O=C(COc1cc(F)ccc1[N+](=O)[O-])Nc1ccc(N2CCCCC2)cc1 was tested. Which Potency did it give?
Its Potency is inconclusive: 39.8 µM [inhibitor, single point].

How did the Potency turn out when CC(=O)c1ccc(S(=O)(=O)N2Cc3ccccc3CC2C(=O)O)cc1 (stereo unspecified) was run?
The Potency was inconclusive: 39.8 µM [inhibitor, single point].

With CCOC(=O)c1c(N/N=C/c2cccnc2)n[nH]c1C as the molecule, how does the Potency read?
Its Potency is “inactive”.

Cc1cc(=O)[nH]c(SCC(=O)c2ccc(O)c(O)c2)n1 was tested. Which Potency did it give?
The Potency was inconclusive: 35.5 µM [inhibitor, single point].

For Cc1ccc(C(=O)C2=C(O)C(=O)N(c3ncccn3)C2c2ccc(Cl)cc2)o1 (stereo unspecified), which Potency is on record?
The Potency was inconclusive: 22.4 µM [inhibitor, partial curve, poor fit].

With COc1cc(O)c(CCO)c2c1C(=O)C[C@@H](C)O2 as the molecule, how does the Potency read?
The Potency was “inactive”.

How did the Potency turn out when O=C1CC(Nc2ccc(N3CCOCC3)cc2)C(=O)N1c1ccccc1F (stereo unspecified) was run?
The Potency was inconclusive: 4.47 µM [inhibitor, full curve, poor fit].

For CC(CC(=O)Nc1nnc(C(C)(C)C)s1)c1ccccc1 (stereo unspecified), which Potency is on record?
The Potency was “inactive”.

With CC(C)CNC(=O)COC(=O)c1c2c(nc3ccccc13)/C(=C/c1cccs1)CC2 as the molecule, how does the Potency read?
The Potency was inconclusive: 22.4 µM [inhibitor, single point].

Which Potency does the source give for COc1cc(C#Cc2c(-c3cncn3C)n(C)c3ccc(-c4ccc(CN5CCOCC5)cc4)cc23)cc(OC)c1 here?
Its Potency is inconclusive: 35.5 µM [inhibitor, single point].

Which Potency does the source give for COc1cccc(C(=O)N2CCN(C(=O)Cc3ccccc3)CC2)c1 here?
Its Potency is “inactive”.

For O=C1NC(=S)/C(=C\c2ccc(-c3ccccc3Cl)o2)S1, which Potency is on record?
The Potency was inconclusive: 25.1 µM [inhibitor, partial curve].

c1ccc2c(c1)N1CCCN=C1N2CCN1CCCCC1 was tested. Which Potency did it give?
Its Potency is “inactive”.

Which Potency does the source give for CC1(C)Cc2c(C#N)c(N)sc(=S)c2CS1 here?
The Potency was “inactive”.

CCOC(=O)CSc1ccc2nnc(-c3cccs3)n2n1 was tested. Which Potency did it give?
Its Potency is inconclusive: 6.31 µM [inhibitor, full curve].

Which Potency does the source give for CCN1CCN(c2ccc(S(=O)(=O)N3CCCCC3)cc2NC(=O)c2cc3ccccc3o2)CC1 here?
Its Potency is inconclusive: 0.708 µM [inhibitor, single point].

Which Potency does the source give for CCc1ccc(C(C)NC(=O)c2ncn[nH]2)cc1 (stereo unspecified) here?
Its Potency is inconclusive: 22.4 µM [inhibitor, single point].

CCOC(=O)C1C(=O)C=C(Nc2ccccc2F)CC1c1ccccc1 (stereo unspecified) was tested. Which Potency did it give?
The Potency was inconclusive: 39.8 µM [inhibitor, partial curve].

Which Potency does the source give for COc1cc(N2CCCC2)c(OC)cc1/C=C(/C#N)c1ccc(F)cc1 here?
The Potency was inconclusive: 25.1 µM [inhibitor, partial curve].

How did the Potency turn out when O=C(NCCc1ccccn1)c1cccc(S(=O)(=O)N2CCc3ccccc32)c1 was run?
The Potency was inconclusive: 0.631 µM [inhibitor, single point].

How did the Potency turn out when CCOCCCNC(=O)c1cc(C)nn1-c1ccccc1 was run?
Its Potency is inconclusive: 39.8 µM [inhibitor, single point].

How did the activity, negative = inhibition turn out when S=C(N/N=C/c1ccc2ncccc2c1)Nc1cccnc1 was run?
The activity, negative = inhibition was inactive: 4.55% [at 11.4 µM].

Which Potency does the source give for O=C(NCc1n[nH]c(=S)n1-c1ccc(Cl)c(Cl)c1)c1ccc(S(=O)(=O)N2CCOCC2)cc1 here?
Its Potency is “inactive”.

How did the Potency turn out when O=C(CNC(=O)c1nc[nH]c1C(=O)NCC(=O)OCc1ccccc1)OCc1ccccc1 was run?
The Potency was “inactive”.

Which Potency does the source give for O=C(Nc1ccc(NC(=O)c2cc([N+](=O)[O-])ccc2N2CCOCC2)cc1)c1cccs1 here?
Its Potency is “inactive”.

Reference: PubChem BioAssay AID485360 (National Center for Advancing Translational Sciences (NCATS), 2010)
